Earlier results on 2 compounds are cited in patent US8894782B2 (priority 2002, dated 2014).

The conditions of the series: animal.

In the case of `CNN` [monomethylhydrazine], the carcinogenicity entry is “confirmed animal carcinogens”.

As to `CN(C)N` [unsymmetrical dimethylhydrazine, 1,1-dimethylhydrazine], the carcinogenicity entry is on record as “confirmed animal carcinogens”.
